Assay results from PubChem BioAssay AID2147 (National Center for Advancing Translational Sciences (NCATS), 2009).
Among all 230,000 compounds or so, about 3,600 (1.6%) were called active. The shares of active, inactive and inconclusive entries below differ from those in the screen. Calls follow the shape of the dose curve; as a rule, active = well fitted inhibition curve with a large enough effect (not every such curve was filed as active); inconclusive = small, poorly fitted or top-dose-only effect, or another doubt; inactive = no such curve, though single readings can be large or run the other way. Potencies beside an inconclusive call are fits to weak or partial responses and may not hold up.

Target: Lysine-specific demethylase 4E (Homo sapiens) (UniProt B2RXH2)
Assay: qHTS Assay for Inhibitors of Human Jumonji Domain Containing 2E (JMJD2E)
Details: JMJD2E catalytic domain, FDH-coupled NADH fluorescence (FDH is formaldehyde dehydrogenase); series mostly up to 57.1 µM
Also: nearly all actives have a fitted effect of over 50% in size.
Potency is read from the fitted curve at half-maximal effect; tags tell the direction and shape of the fitted curve.

Sequence of UniProt B2RXH2 (B2RXH2 whole entry, looked up, the tested form may be a part): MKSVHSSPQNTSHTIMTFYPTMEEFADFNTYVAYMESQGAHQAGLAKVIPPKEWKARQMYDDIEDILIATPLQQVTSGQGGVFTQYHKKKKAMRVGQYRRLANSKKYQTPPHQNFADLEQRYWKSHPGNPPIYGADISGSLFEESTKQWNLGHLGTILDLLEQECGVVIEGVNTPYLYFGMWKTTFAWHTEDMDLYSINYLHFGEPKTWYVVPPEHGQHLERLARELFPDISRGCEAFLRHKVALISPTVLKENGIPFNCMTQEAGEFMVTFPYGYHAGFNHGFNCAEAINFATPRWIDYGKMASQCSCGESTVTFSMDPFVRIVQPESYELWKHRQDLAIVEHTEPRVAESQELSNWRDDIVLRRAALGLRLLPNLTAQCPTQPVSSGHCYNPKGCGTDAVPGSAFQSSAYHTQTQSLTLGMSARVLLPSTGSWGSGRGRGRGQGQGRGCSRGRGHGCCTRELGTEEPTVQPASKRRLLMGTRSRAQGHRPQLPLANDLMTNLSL

**Q.** Which Potency does the source give for `Cc1cc(-c2csc(NC(=O)c3cccc(S(=O)(=O)N(C)C)c3)n2)c(C)n1-c1ccccc1` here?
**A.** active: 12.6 µM

**Q.** With `NS(=O)(=O)c1cccc(NC(=O)CSc2nnnn2-c2ccccc2)c1` as the compound, how does the Potency read?
**A.** inactive

**Q.** How did the Potency turn out when `Cc1ccc2oc(-c3cccc(NC(=O)Cc4cccs4)c3)nc2c1` was run?
**A.** inconclusive: 35.5 µM [inhibitor, single point]

**Q.** `O=c1c(-c2ccccc2)coc2c(CN3CCOCC3)c(O)ccc12` was tested. Which Potency did it give?
**A.** inconclusive: 3.16 µM [inhibitor, partial curve]

**Q.** For `CCOc1ccc(C(=O)Nc2nc(C)c(C(=O)OC)s2)cc1`, which Potency is on record?
**A.** inconclusive: 17.8 µM [inhibitor, partial curve, poor fit]

**Q.** For `Cc1ccc(/C=C2\CCCC3=C2NC(=S)NC3c2ccc(C)cc2)cc1` (stereo not given), which Potency is on record?
**A.** inconclusive: 35.5 µM [inhibitor, single point]

**Q.** `CCN1C(=O)/C(=C\c2ccncc2)SC1=S` was tested. Which Potency did it give?
**A.** inactive

**Q.** With `CC1CCCN(CCCNC(=O)c2coc3nc4ccccc4nc23)C1` (stereo not given) as the compound, how does the Potency read?
**A.** inconclusive: 25.1 µM [inhibitor, partial curve]

**Q.** `COc1cc(-c2nnc(-c3cc(OC)c(OC)c(OC)c3)o2)cc(OC)c1OC` was tested. Which Potency did it give?
**A.** inconclusive: 10 µM [inhibitor, partial curve]

**Q.** Which Potency does the source give for `OC1(c2ccc3ccccc3c2)CCN(Cc2ccccc2)C1` (stereo not given) here?
**A.** inconclusive: 14.1 µM [inhibitor, single point]

**Q.** For `O=C(N/N=C/c1ccc(F)cc1)c1ccccc1`, which Potency is on record?
**A.** inactive

**Q.** Which Potency does the source give for `CC(C)Cn1c2c(c(O)c(C(=O)Nc3ncccc3O)c1=O)CCCC2` here?
**A.** inconclusive: 25.1 µM [inhibitor, single point]

**Q.** For `O=C1CC(c2ccco2)Cc2nc(N3CCN(Cc4ccc5c(c4)OCO5)CC3)ncc21` (stereo not given), which Potency is on record?
**A.** inconclusive: 28.2 µM [inhibitor, partial curve]

**Q.** With `COc1ccc(-c2oc3cc(OC)c(OC(C)=O)c(OC)c3c(=O)c2OC)cc1OC(C)=O` as the compound, how does the Potency read?
**A.** inconclusive: 7.08 µM [inhibitor, partial curve]

**Q.** With `Cc1cccc(NC(=S)NC2CCCCC2)n1` as the compound, how does the Potency read?
**A.** inactive

**Q.** For `O=C(NO)c1ccccc1O`, which Potency is on record?
**A.** active: 10 µM

**Q.** Which Potency does the source give for `Cc1cc(Br)ccc1OCCCCNCCO` here?
**A.** inconclusive: 39.8 µM [inhibitor, single point]

**Q.** `Cc1c(C(=O)NCCCN2CCCC2=O)oc2ccccc12` was tested. Which Potency did it give?
**A.** inconclusive: 39.8 µM [inhibitor, single point]

**Q.** With `Cc1ccc(S(=O)(=O)ON2C(=O)c3cccc4cccc(c34)C2=O)cc1` as the compound, how does the Potency read?
**A.** inconclusive: 35.5 µM [inhibitor, partial curve]

**Q.** How did the Potency turn out when `CCOC(=O)c1nn(-c2ccccc2)c(=O)c2c(NC(C)=O)scc12` was run?
**A.** inactive
